From the supplement of paper PMC12217912
Some of the results follow. The full chains were built here from the parent and the listed change. Inactive controls read about 0.05.

B1: TEV protease; numbered along this chain (parent)
chain: MGESLFKGPRDYNPISSSICHLTNESDGHTTSLYGIGFGPFIITNKHLFRRNNGTLVVQSLHGVFKVKDTTTLQQHLVDGRDMIIIRMPKDFPPFPQKLKFREPQREERICLVTTNFQTKSMSSMVSDTSCTFPSGDGIFWKHWIQTKDGQCGSPLVSTRDGFIVGIHSASNFTNTNNYFTSVPKNFMELLTNQEAQQWVSGWRLNADSVLWGGHKVFMVKPEEPFQPVKEATQL

Variants of: B1
Test: raw area under fraction-flipped curve 0-4 h after induction (AUC4h, not background-subtracted), DNA-recorder readout of cleavage of the substrate (dimensionless); higher = more cleavage of the substrate by the protease variant
Details: temperature: 34 °C; time window: 0-4 h after rhamnose induction
Description: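 In vivo DNA recorder in E. coli TOP10(DE3) ΔrhaA at 34 °C. Each TEVp single-site mutant (parent TEVp 0) is paired with a single-site variant of the 7-mer TEVs (canonical ENLYFQ|S). The substrate sits between flexible linkers in a Bxb1-sfGFP-TEVs-SsrA fusion, so cleavage stabilises Bxb1 and speeds flipping of a recombination array, read by NGS. The value is the raw area under the fraction-flipped curve over 0-4 h after rhamnose induction (AUC4h), with ≥20 reads per time point. It is not background-subtracted; inactive controls average about 0.047.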
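Note: Bxb1 expression induced with 0.2% (w/v) L-rhamnose at OD600 near 0.5, cultures sampled hourly, flipped fraction per protease–substrate barcode pair counted by paired-end Illumina sequencing.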

Variant | area with substrate ENLYFQC | area with substrate ENLYFQE | area with substrate ENLYFQF | area with substrate ENLYFQG | area with substrate ENLYFQH | area with substrate ENLYFQI | area with substrate ENLYFQK | area with substrate ENLYFQN | area with substrate ENLYFQP | area with substrate ENLYFQR | area with substrate ENLYFQS | area with substrate ENLYFQT | area with substrate ENLYFQV | area with substrate ENLYFQW | area with substrate ENLYFQY | area with substrate ENLYFQD | area with substrate ENLYFQL | area with substrate ENLYFQM | area with substrate ENLYFQQ | area with substrate ENLYFQA
G63D | 0.105 | 0.0757 | 0.0659 | 0.0912 | 0.0672 | 0.0527 | 0.0507 | 0.0656 | 0.046 | 0.0517 | 0.0891 | 0.0616 | 0.07 | 0.0748 | 0.0809 |  |  |  |  | 
D69I | 0.0872 | 0.0479 |  | 0.0706 |  |  |  |  |  |  | 0.0703 | 0.0507 | 0.0313 |  | 0.0642 | 0.0605 | 0.0542 |  |  | 
L77V | 0.0873 |  | 0.0518 | 0.0561 |  |  | 0.0454 |  |  | 0.07 | 0.0825 | 0.0557 | 0.0669 | 0.0731 |  |  | 0.0598 | 0.0755 | 0.0604 | 
P222Y | 0.121 |  |  |  | 0.0886 | 0.097 | 0.0622 | 0.0734 | 0.0502 | 0.0596 | 0.093 |  | 0.0597 | 0.0218 | 0.0638 | 0.0601 | 0.0625 | 0.0735 |  | 0.0854
P222Q | 0.0744 |  | 0.0728 | 0.104 | 0.086 | 0.0861 | 0.0589 | 0.0729 |  | 0.0447 | 0.0981 | 0.0662 | 0.0417 | 0.0678 | 0.0615 |  | 0.06 | 0.0849 |  | 0.0819
D79I | 0.103 |  |  |  |  |  |  | 0.0824 |  | 0.0512 | 0.0923 | 0.0566 |  | 0.0674 |  |  |  | 0.0957 |  | 
K221D |  |  | 0.048 | 0.0883 |  | 0.0644 | 0.0586 | 0.0834 | 0.0693 | 0.0594 | 0.104 | 0.0624 | 0.0511 | 0.0512 | 0.0628 | 0.0594 | 0.0632 |  |  | 0.0744
K66I | 0.145 |  |  |  |  |  |  |  |  |  | 0.109 |  | 0.0568 | 0.0897 | 0.0795 |  |  |  |  | 
R102W | 0.0772 |  | 0.0497 |  | 0.0528 | 0.037 | 0.0467 | 0.0456 | 0.0584 | 0.048 | 0.0507 | 0.0364 | 0.0568 | 0.045 |  | 0.0521 | 0.0447 | 0.0534 |  | 
R102D | 0.0501 |  |  | 0.0553 |  |  | 0.0379 |  |  |  | 0.0532 | 0.0175 |  | 0.0487 |  |  | 0.0568 | 0.0503 |  | 
R102Q | 0.0651 |  |  | 0.0662 |  |  | 0.0511 |  |  | 0.0678 | 0.0569 | 0.0484 | 0.0504 |  | 0.0431 |  | 0.0511 | 0.055 | 0.0439 | 
L61K | 0.11 |  |  |  |  | 0.0562 | 0.0516 | 0.0733 | 0.0528 | 0.0627 | 0.11 | 0.0551 |  | 0.0521 |  | 0.0548 | 0.0685 |  | 0.0694 | 
K100S | 0.111 |  | 0.0963 |  |  | 0.0811 |  | 0.0823 | 0.0553 | 0.0802 | 0.0995 | 0.0843 | 0.0502 | 0.0731 | 0.0732 | 0.0774 | 0.0561 | 0.0888 |  | 
T55Y | 0.107 | 0.0573 |  |  | 0.079 |  |  |  | 0.0559 | 0.0696 | 0.0846 | 0.0471 | 0.0541 | 0.067 |  |  | 0.0545 | 0.0811 |  | 
K46H | 0.0539 |  | 0.0589 | 0.0618 | 0.0574 |  | 0.0595 | 0.0337 | 0.0499 |  | 0.0621 |  | 0.0571 |  | 0.016 | 0.0531 | 0.0597 |  |  | 
K46L | 0.104 | 0.0629 | 0.0619 | 0.108 | 0.0755 | 0.0554 | 0.065 | 0.0673 | 0.0511 | 0.0541 | 0.0835 | 0.0633 | 0.0645 | 0.0576 | 0.0587 | 0.0602 | 0.0635 | 0.0545 |  | 
K46Q | 0.0764 |  |  | 0.115 |  | 0.0471 |  | 0.0638 |  | 0.0643 | 0.101 | 0.0508 | 0.0655 |  |  |  | 0.0583 | 0.0718 |  | 
S17K | 0.145 | 0.0553 | 0.0704 | 0.101 | 0.0799 | 0.025 | 0.076 | 0.0574 | 0.059 | 0.0651 | 0.105 | 0.0662 | 0.0724 | 0.053 | 0.084 | 0.08 | 0.0662 | 0.0899 |  | 
P9M | 0.101 |  | 0.0609 | 0.0865 | 0.0906 | 0.0565 | 0.0518 | 0.0805 | 0.0814 | 0.0618 | 0.115 | 0.0835 | 0.0704 | 0.0582 | 0.0815 | 0.0545 | 0.0722 |  | 0.0823 | 
H62M | 0.0681 |  |  |  |  |  |  |  |  | 0.0683 | 0.101 |  | 0.0495 |  |  |  |  |  | 0.0603 | 
G8V | 0.125 |  |  |  |  |  |  |  |  |  | 0.103 | 0.0612 |  |  |  |  | 0.054 |  |  | 
S60Q | 0.103 |  |  |  | 0.0751 | 0.0581 | 0.0751 | 0.0682 |  | 0.0726 | 0.0877 |  |  | 0.0629 |  | 0.0699 | 0.0649 | 0.104 |  | 
S60D | 0.0848 |  |  | 0.078 | 0.0748 |  | 0.0766 | 0.0582 | 0.047 | 0.0406 | 0.0865 | 0.0506 | 0.0507 | 0.0624 |  |  | 0.0482 | 0.0909 |  | 
I43C | 0.0936 | 0.052 | 0.0477 | 0.0839 |  | 0.0634 | 0.0563 | 0.07 | 0.0583 | 0.0498 | 0.0845 | 0.0631 |  | 0.0452 | 0.0697 | 0.0586 | 0.0538 | 0.0678 | 0.0557 | 
I43T | 0.0794 |  | 0.0686 | 0.0683 | 0.0693 | 0.0511 |  | 0.0601 | 0.0462 | 0.0526 | 0.0775 | 0.049 | 0.0556 | 0.0691 | 0.0581 |  | 0.0431 | 0.0639 |  | 
I43P | 0.0548 | 0.0429 |  | 0.0542 | 0.0367 | 0.0419 | 0.0414 | 0.0373 |  | 0.0378 | 0.0462 | 0.0363 |  | 0.0348 | 0.0448 | 0.0407 | 0.0403 | 0.0509 | 0.0497 | 
E108V | 0.0653 | 0.0419 |  | 0.0642 | 0.054 |  | 0.0593 |  |  | 0.0544 | 0.0621 | 0.0519 | 0.0458 | 0.0615 | 0.0649 |  | 0.0593 | 0.061 |  | 
L22R | 0.0256 |  |  |  | 0.0456 |  | 0.0492 | 0.0364 |  | 0.0318 | 0.048 | 0.0315 |  | 0.0302 | 0.0453 |  | 0.0518 | 0.0352 | 0.039 | 
